In a collection of fitness landscapes (doi:10.1038/s41467-024-54723-y):
Whole data set: some 18,000 sequences, median “TetR repression strength (sort-seq, GFP reporter)” near 0.23, cut for the highest 2% near 0.68. Some of the results follow.

molecular target: TetR (class B, Tn10) (UniProt P04483); experiment: TetR repression strength (sort-seq, GFP reporter) (relative to tetO2 = 1); higher = stronger repression; settings: E. coli
In short: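 In LB with 50 µg/mL chloramphenicol, E. coli SIG10-MAX holding a low-copy library with eight randomized operator positions between a constitutive promoter and sfGFP, plus constitutive TetR, grew for 5 h at 37 °C. FACS then sorted 10^6 cells into 13 fluorescence bins for Illumina sequencing of each bin. Repression strength equals the top bin index plus one less the read-weighted mean bin, normalized to the unaltered operator. Values from three independent transformations were averaged when reads were ≥30 in every replicate and the CV was ≤0.5.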

Chain of UniProt P04483 (P04483 whole entry): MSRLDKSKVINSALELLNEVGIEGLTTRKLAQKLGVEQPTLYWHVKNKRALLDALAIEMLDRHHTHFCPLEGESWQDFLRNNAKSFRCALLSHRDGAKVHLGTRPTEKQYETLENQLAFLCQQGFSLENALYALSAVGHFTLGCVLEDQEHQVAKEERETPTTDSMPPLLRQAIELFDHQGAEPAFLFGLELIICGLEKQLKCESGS

Going from TCCCATCGAGTCGTCGAGA to TCCCATGCAGTTCATGAGA, the TetR repression strength falls from 0.578 to 0.216.

Compared with TCCCAGGGAGTGCTTGAGA, TCCCGAATAGTTTTGGAGA is higher in TetR repression strength: 0.258 for the first, 0.327 for the second.

Compared with TCCCGTCGAGTTGCAGAGA, TCCCGGCAAGTTGCAGAGA is lower in TetR repression strength: 0.368 for the first, 0.115 for the second.

Going from TCCCCTTAAGTGGGCGAGA to TCCCTCGCAGTTTTCGAGA, the TetR repression strength rises from 0.0367 to 0.322.

Going from TCCCGGCCAGTGAATGAGA to TCCCGGTGAGTGGGTGAGA, the TetR repression strength falls from 0.507 to 0.459.

Compared with TCCCTTATAGTGGGGGAGA, TCCCCGGGAGTAGGAGAGA is higher in TetR repression strength: 0.161 for the first, 0.448 for the second.

Compared with TCCCACGAAGTGGGCGAGA, TCCCCAGGAGTAATTGAGA is lower in TetR repression strength: 0.104 for the first, 0.0981 for the second.

First: TCCCGCGGAGTGTCTGAGA
Second: TCCCTTAAAGTTGCAGAGA
The TetR repression strength of the first is higher: 0.322 for the first, 0 for the second.

Compared with TCCCCTCTAGTGTTAGAGA, TCCCTCTAAGTCGGGGAGA is higher in TetR repression strength: 0.0774 for the first, 0.415 for the second.

Going from TCCCTGCAAGTAGGTGAGA to TCCCGGTCAGTCCTCGAGA, the TetR repression strength rises from 0.0583 to 0.15.

Compared with TCCCGCTAAGTCATCGAGA, TCCCTCGTAGTGAACGAGA is higher in TetR repression strength: 0.167 for the first, 0.226 for the second.

First: TCCCGGGCAGTGTGAGAGA
Second: TCCCAACCAGTTGCTGAGA
The TetR repression strength of the first is higher: 0.386 for the first, 0.198 for the second.

Compared with TCCCCGGGAGTCGCTGAGA, TCCCGGTGAGTAGGCGAGA is lower in TetR repression strength: 0.406 for the first, 0.0704 for the second.

Going from TCCCCGGGAGTGTAAGAGA to TCCCTGACAGTGAAAGAGA, the TetR repression strength falls from 0.213 to 0.0543.

Going from TCCCGCCTAGTTCGTGAGA to TCCCTCAAAGTGTACGAGA, the TetR repression strength rises from 0.0765 to 0.165.

Going from TCCCTTCGAGTAGCCGAGA to TCCCTACTAGTTGGAGAGA, the TetR repression strength falls from 0.623 to 0.196.

First: TCCCGTCAAGTGGCTGAGA
Second: TCCCGTGGAGTGACAGAGA
The TetR repression strength of the first is lower: 0.13 for the first, 0.221 for the second.

First: TCCCGAGTAGTTCTGGAGA
Second: TCCCAGGGAGTTGGTGAGA
The TetR repression strength of the first is higher: 0.266 for the first, 0.0385 for the second.

First: TCCCACGGAGTCGGGGAGA
Second: TCCCTAATAGTCCCTGAGA
The TetR repression strength of the first is lower: 0.23 for the first, 0.387 for the second.

Compared with TCCCTCATAGTGGTTGAGA, TCCCCAGTAGTGCTGGAGA is lower in TetR repression strength: 0.177 for the first, 0.0383 for the second.

Going from TCCCGATCAGTGGGTGAGA to TCCCGTTTAGTCGGTGAGA, the TetR repression strength falls from 0.395 to 0.101.

Compared with TCCCGGTTAGTACAAGAGA, TCCCGTTGAGTTCTGGAGA is lower in TetR repression strength: 0.214 for the first, 0.207 for the second.

First: TCCCGGCCAGTGTCTGAGA
Second: TCCCCGACAGTCTGTGAGA
The TetR repression strength of the first is lower: 0.204 for the first, 0.284 for the second.

Going from TCCCATCGAGTAAGAGAGA to TCCCAGGGAGTACTAGAGA, the TetR repression strength rises from 0.347 to 0.414.

Compared with TCCCTCATAGTCATTGAGA, TCCCGTGCAGTAGAGGAGA is lower in TetR repression strength: 0.257 for the first, 0.206 for the second.

First: TCCCTGGGAGTAGATGAGA
Second: TCCCGAACAGTGGCAGAGA
The TetR repression strength of the first is lower: 0.203 for the first, 0.236 for the second.

First: TCCCGTTAAGTGGTAGAGA
Second: TCCCGTTAAGTCACTGAGA
The TetR repression strength of the first is lower: 0 for the first, 0.161 for the second.

Compared with TCCCCAACAGTGGAAGAGA, TCCCCAGTAGTCCCTGAGA is higher in TetR repression strength: 0.191 for the first, 0.945 for the second.

Compared with TCCCCACGAGTGATTGAGA, TCCCTGGAAGTTAGTGAGA is lower in TetR repression strength: 0.314 for the first, 0.146 for the second.

First: TCCCCGATAGTCGGGGAGA
Second: TCCCCTTGAGTTGCTGAGA
The TetR repression strength of the first is lower: 0.0848 for the first, 0.383 for the second.

Compared with TCCCGTTCAGTGTGTGAGA, TCCCGGGGAGTGAAGGAGA is lower in TetR repression strength: 0.354 for the first, 0.211 for the second.

Compared with TCCCTTTCAGTTTCGGAGA, TCCCGTAGAGTGAGGGAGA is lower in TetR repression strength: 0.422 for the first, 0.229 for the second.

TCCCTACAAGTGTTGGAGA was tested, and the TetR repression strength was 0.118.
